Test results from a compilation of properties of binary mixtures (doi:10.1021/acs.jced.9b00364).
Some of these densities may be calculated back from excess volumes.

Experiment: xn = mol fraction of the nth substance listed
Conditions: 100 kPa

CCCCOCCO + CNCCO
x2 = 0
Conditions | mass density [kg/m3]
293.15 K | 900.4
298.15 K | 896.2
303.15 K | 892
308.15 K | 887.8
323.15 K | 874.9
328.15 K | 870.6
333.15 K | 866.2
338.15 K | 861.8
343.15 K | 857.3

CCOCCO + CNCCO
x2 = 0
Conditions | mass density [kg/m3]
293.15 K | 929.5
298.15 K | 925
303.15 K | 920.5
318.15 K | 906.6
323.15 K | 901.9
328.15 K | 897.2
333.15 K | 892.4
343.15 K | 882.7

COCCO + CNCCO
x2 = 0
Conditions | mass density [kg/m3]
293.15 K | 962.4
313.15 K | 946.2
318.15 K | 941.5
323.15 K | 936.8
328.15 K | 932
338.15 K | 922.4
348.15 K | 912.5
353.15 K | 907.5

CNCCO + COCCO
mass density [kg/m3]
Conditions | x1 = 0.1012 | x1 = 0.3027 | x1 = 0.4031 | x1 = 0.5033 | x1 = 0.7027 | x1 = 0.9012 | x1 = 1
293.15 K | – | 957.8 | 955 | 952.4 | 947 | 941.2 | 938.2
303.15 K | 954.2 | – | 948.6 | 946.1 | 940.9 | 935.3 | 932.3
308.15 K | 949.7 | 946.9 | 944.3 | 941.9 | 936.9 | 931.3 | 928.4
313.15 K | – | 942.5 | 940 | 937.7 | 932.7 | 927.3 | 924.5
318.15 K | – | 938.1 | 935.7 | 933.4 | – | 923.3 | 920.5
323.15 K | 935.8 | 933.6 | 931.3 | 929.1 | 924.4 | 919.3 | 916.5
328.15 K | 931.2 | 929.1 | 926.8 | 924.7 | 920.2 | 915.2 | 912.5
333.15 K | 926.4 | 924.6 | 922.4 | 920.3 | 916 | 911.1 | 908.5
338.15 K | 921.7 | 920 | 917.9 | 915.9 | – | 907 | 904.4
343.15 K | 916.9 | 915.4 | – | 911.4 | 907.4 | 902.8 | 900.3
348.15 K | – | – | 908.7 | 906.9 | 903.1 | 898.6 | 896.2
353.15 K | 907.1 | 906 | 904.1 | 902.4 | – | 894.4 | –
